In test [1] the target is T1, human EGFR-GST (human, UniProt P00533 fragment).
T1 construct: also called human EGFR-GST protein; not shown: GST fused at the C terminus, with any junction residues
Nature of the test: SPR (Biacore T100), KD for human EGFR-GST divided by KD for monkey EGFR-GST. A general note: SPR reads the build-up and loss of mass on a sensor chip optically.

In a further test the target is T2, monkey EGFR-GST (monkey, UniProt P55245 fragment).
T2 construct: also called monkey EGFR-GST protein; not shown: GST added to the C terminus
The test is described as follows: SPR (Biacore T100), bispecific captured via anti-human IgG, antigen as analyte, single cycle kinetics.

Test [2] has as its target T1, human EGFR-GST. Described as above.
A further test concerns the target T3, FLAG-Fc-monkey TfR (monkey, UniProt Q5RDH6 89-760).
T3 construct: also called FLAG-Fc-monkey TfR protein; soluble monkey TfR antigen; not shown: FLAG-tag and Fc region of human IgG from the INPEP4 vector, added to the N terminus
T3 chain: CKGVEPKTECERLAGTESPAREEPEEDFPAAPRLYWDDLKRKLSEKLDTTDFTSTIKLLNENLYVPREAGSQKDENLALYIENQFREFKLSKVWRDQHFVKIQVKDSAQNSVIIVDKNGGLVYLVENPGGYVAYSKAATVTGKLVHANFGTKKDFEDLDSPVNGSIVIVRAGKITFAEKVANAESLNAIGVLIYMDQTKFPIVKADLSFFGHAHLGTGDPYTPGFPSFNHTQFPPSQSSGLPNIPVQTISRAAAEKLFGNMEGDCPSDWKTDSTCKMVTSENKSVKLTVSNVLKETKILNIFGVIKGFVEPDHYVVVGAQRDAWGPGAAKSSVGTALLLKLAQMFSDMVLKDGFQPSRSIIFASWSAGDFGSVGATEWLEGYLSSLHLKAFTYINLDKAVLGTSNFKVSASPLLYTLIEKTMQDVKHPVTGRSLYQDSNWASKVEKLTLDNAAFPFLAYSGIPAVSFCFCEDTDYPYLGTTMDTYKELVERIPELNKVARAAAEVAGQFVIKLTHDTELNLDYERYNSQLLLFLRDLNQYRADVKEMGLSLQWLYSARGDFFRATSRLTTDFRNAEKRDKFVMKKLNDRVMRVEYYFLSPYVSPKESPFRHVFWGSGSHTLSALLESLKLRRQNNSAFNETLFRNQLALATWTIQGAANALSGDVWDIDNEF
Described as above.

Test [3] addresses T4, FLAG-Fc-human TfR (human, UniProt P02786).
T4 construct: also called FLAG-Fc-human TfR protein; soluble human TfR antigen; not shown: FLAG-tag and Fc region of human IgG from the INPEP4 vector, added to the N terminus
The test is described as above.

The target of test [4] is T4, FLAG-Fc-human TfR. The test is described as follows: SPR (Biacore T100), KD for FLAG-Fc-human TfR divided by KD for FLAG-Fc-monkey TfR.

B1: E12-TfR1071 (bispecific antibody)
heavy: QVQLVESGGGLVQPGGSLRLSCAASRFTFSAYAMGWVRQAPGKGLEWVSIIDSGGVYTYYADSMKGRFTISRDNSKNTLYLQMNSLRAEDTAVYYCARDHYGVVWGLGDYWGQGTLVTVSSASTKGPSVFPLAPCSRSTSESTAALGCLVKDYFPEPVTVSWNSGALTSGVHTFPAVLQSSGLYSLSSVVTVPSSSLGTKTYTCNVDHKPSNTKVDKRVYVQLVESGGGLVQPGGSLRLSCAASGFSFDKYTMNWVRQAPGKGLEWVSVISNGGVSTDYADSVKGRFTVSRDNSKNTLYLQMNSLRAEDMATYYCARASQPWLYRTGADVWGQGTLVTVSSASTKGPSVFPLAPCSRSTSESTAALGCLVKDYFPEPVTVSWNSGALTSGVHTFPAVLQSSGLYSLSSVVTVPSSSLGTKTYTCNVDHKPSNTKVDKRV[left out - human IgG4 Fc with S228P L235E R409K (EU numbers)]
VL: [left out - about 100 residues]
notes: also called E12-TfR1071 bispecific antibody; EGFR-TfR bispecific antibody; copies: 2 + 4
Regarding B1, the “Human EGFR [nM]/Monkey EGFR [nM] (KD ratio)” value in the test with human EGFR-GST [1] is 0.84. Further, the figures for the Kd with monkey EGFR-GST and with human EGFR-GST [2] were 0.25 nM and 0.21 nM, respectively.

B2: E12-cyno186 (bispecific antibody)
heavy: QVQLVESGGGLVQPGGSLRLSCAASRFTFSAYAMGWVRQAPGKGLEWVSIIDSGGVYTYYADSMKGRFTISRDNSKNTLYLQMNSLRAEDTAVYYCARDHYGVVWGLGDYWGQGTLVTVSSASTKGPSVFPLAPCSRSTSESTAALGCLVKDYFPEPVTVSWNSGALTSGVHTFPAVLQSSGLYSLSSVVTVPSSSLGTKTYTCNVDHKPSNTKVDKRVQVQLVESGGEFVQPGGSLRLSCAASGFPFKGYAMNWVRQAPGKGLEWVSRISNGGSYIDYADSVKGRFTISRDNSKNTLYLQIDSLRTEDTAVYYCAKAKDAYRWNNAIDEWGQGTLVTVSSASTKGPSVFPLAPCSRSTSESTAALGCLVKDYFPEPVTVSWNSGALTSGVHTFPAVLQSSGLYSLSSVVTVPSSSLGTKTYTCNVDHKPSNTKVDKRV[left out - human IgG4 Fc with S228P L235E R409K (EU numbers)]
VL: [left out - about 100 residues]
notes: also called EGFR-TfR bispecific antibody; copies: 2 + 4
With B2, the Kd with FLAG-Fc-monkey TfR was 56.5 nM; with FLAG-Fc-human TfR [3] it was 10.7 nM. In addition, in the test with FLAG-Fc-human TfR [4], the “Human TfR [nM]/Monkey TfR [nM] (KD ratio)” value worked out at 0.19.

B3: E17-cyno186 (bispecific antibody)
heavy: QVQLQQWGAGLLKPSETLSLTCALYSGSFSAQDWSWIRQSPEKGLEWIGEIWQGGKTNYNPSLKSRVSISRDNSKNQLSLQLSSVTAADTAVYYCARVDWSYRVFEIWGQGTMVTVSSASTKGPSVFPLAPCSRSTSESTAALGCLVKDYFPEPVTVSWNSGALTSGVHTFPAVLQSSGLYSLSSVVTVPSSSLGTKTYTCNVDHKPSNTKVDKRVQVQLVESGGEFVQPGGSLRLSCAASGFPFKGYAMNWVRQAPGKGLEWVSRISNGGSYIDYADSVKGRFTISRDNSKNTLYLQIDSLRTEDTAVYYCAKAKDAYRWNNAIDEWGQGTLVTVSSASTKGPSVFPLAPCSRSTSESTAALGCLVKDYFPEPVTVSWNSGALTSGVHTFPAVLQSSGLYSLSSVVTVPSSSLGTKTYTCNVDHKPSNTKVDKRV[left out - human IgG4 Fc with S228P L235E R409K (EU numbers)]
VL: [left out - about 100 residues]
notes: also called EGFR-TfR bispecific antibody
On to B3, for which the Kd with FLAG-Fc-monkey TfR stood at 5.39 nM; with FLAG-Fc-human TfR [3], 4.02 nM. Also, in the test with FLAG-Fc-human TfR [4], the “Human TfR [nM]/Monkey TfR [nM] (KD ratio)” value is 0.75.

B4: E17-TfR1071 (bispecific antibody)
heavy: QVQLQQWGAGLLKPSETLSLTCALYSGSFSAQDWSWIRQSPEKGLEWIGEIWQGGKTNYNPSLKSRVSISRDNSKNQLSLQLSSVTAADTAVYYCARVDWSYRVFEIWGQGTMVTVSSASTKGPSVFPLAPCSRSTSESTAALGCLVKDYFPEPVTVSWNSGALTSGVHTFPAVLQSSGLYSLSSVVTVPSSSLGTKTYTCNVDHKPSNTKVDKRVYVQLVESGGGLVQPGGSLRLSCAASGFSFDKYTMNWVRQAPGKGLEWVSVISNGGVSTDYADSVKGRFTVSRDNSKNTLYLQMNSLRAEDMATYYCARASQPWLYRTGADVWGQGTLVTVSSASTKGPSVFPLAPCSRSTSESTAALGCLVKDYFPEPVTVSWNSGALTSGVHTFPAVLQSSGLYSLSSVVTVPSSSLGTKTYTCNVDHKPSNTKVDKRV[left out - human IgG4 Fc with S228P L235E R409K (EU numbers)]
VL: [left out - about 100 residues]
notes: as for B3
Turning to B4, the “Human EGFR [nM]/Monkey EGFR [nM] (KD ratio)” value with human EGFR-GST [1] is 0.46. The Kd with monkey EGFR-GST is 0.67 nM; with human EGFR-GST [2], 0.31 nM.

For orientation: Kd means the concentration at which binding is half-saturated.

Values taken from US20220017635A1 (Kyowa Kirin, published 2022).
